Source: the supplement of paper PMC4604168 (melanoma cell lines)
The list shows a part of the results. Most values come without repeats; read them as rough.

test system: C32; assay: cell count relative to DMSO control; melanoma cells; higher = more viable cells; settings: library dose: low library concentration; 72 h
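Note: cell number obtained by counting DAPI-stained nuclei in high-throughput microscope images with image analysis software, screen run in 1,536-well plates.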

Row | SMILES | cell count [%]
1 | O=S(=O)(c1ccccc1)N(CC(F)(F)F)c1ccc(C(O)(C(F)(F)F)C(F)(F)F)cc1 + O=c1cc(-c2cccc3c2Sc2ccccc2S3)oc(N2CCOCC2)c1 [KU55933] (first compound 1.4 µM, partner dose 1 µM) | 89.2
2 | O=S(=O)(c1ccccc1)N(CC(F)(F)F)c1ccc(C(O)(C(F)(F)F)C(F)(F)F)cc1 + Oc1nc(-c2ccc(C(F)(F)F)cc2)nc2c1CSCC2 [XAV939] (first compound 1.4 µM, partner dose 2 µM) | 94.7
3 | COc1ccc2c(c1)CCC1C2CCC2(C)C(NCCCCCCN3C(=O)C=CC3=O)CCC12 (centres undefined) + Cn1cc(/C=C2\C(=O)Nc3cccnc32)c2ccccc21 [GW441756] (first compound 0.4 µM, partner dose 0.4 µM) | 108
4 | COc1ccc(COc2ccc(Cc3cnc(N)nc3N)cc2OC)cc1 + O=S(=O)(c1ccccc1)N(CC(F)(F)F)c1ccc(C(O)(C(F)(F)F)C(F)(F)F)cc1 [T0901317] (first compound 1 µM, partner dose 1.4 µM) | 98.1
5 | Cc1cc([N+](=O)[O-])ccc1NS(=O)(=O)c1cc(Cl)ccc1Cl + c1cc(-c2cnn3cc(-c4ccc(OCCN5CCCCC5)cc4)cnc23)ccn1 [Dorsomorphin] (first compound 1 µM, partner dose 0.4 µM) | 76.4
6 | Oc1nc(-c2ccc(C(F)(F)F)cc2)nc2c1CSCC2 + CC(C)CCN1c2nc(Nc3cc(F)c(O)c(F)c3)ncc2N(C)C(=O)C1C [BID1870] (first compound 2 µM, partner dose 0.2 µM) | 96.7
7 | O=S(=O)(c1ccccc1)N(CC(F)(F)F)c1ccc(C(O)(C(F)(F)F)C(F)(F)F)cc1 + COc1cc(N2CCC(N3CCN(C)CC3)CC2)ccc1Nc1ncc(Cl)c(Nc2ccccc2S(=O)(=O)C(C)C)n1 [NVP-TAE684] (first compound 1.4 µM, partner dose 0.08 µM) | 109
8 | Oc1nc(-c2ccc(C(F)(F)F)cc2)nc2c1CSCC2 + c1cc(-c2cnn3cc(-c4ccc(OCCN5CCCCC5)cc4)cnc23)ccn1 [Dorsomorphin] (first compound 2 µM, partner dose 0.4 µM) | 93.2
9 | COc1ccc(-c2ccc3c(N4CCOCC4)nc(N4C[C@@H](C)O[C@@H](C)C4)nc3n2)cc1CO + Oc1cc(-c2nc(-c3ccccc3)[nH]c2-c2ccncc2)ccc1Cl [L779450] (first compound 0.02 µM, partner dose 0.2 µM) | 89.4
10 | CCN(CC)CCCCNc1ncc2cc(-c3cc(OC)cc(OC)c3)c(NC(=O)NC(C)(C)C)nc2n1 + Cc1cc([N+](=O)[O-])ccc1NS(=O)(=O)c1cc(Cl)ccc1Cl [FH535] (first compound 0.1 µM, partner dose 1 µM) | 85.4
11 | O=C(O)C(=O)Nc1sc2c(c1C(=O)O)CCNC2 + c1cc(-c2cnn3cc(-c4ccc(OCCN5CCCCC5)cc4)cnc23)ccn1 [Dorsomorphin] (first compound 1.66667 µM, partner dose 0.4 µM) | 99.1
12 | O=S(=O)(c1ccccc1)N(CC(F)(F)F)c1ccc(C(O)(C(F)(F)F)C(F)(F)F)cc1 + CCCCCCCCCCCC1=C(O)C(=O)C=C(O)C1=O [Embelin] (first compound 1.4 µM, partner dose 1.2 µM) | 92.9
13 | COC(=O)c1sccc1S(=O)(=O)Nc1ccc(Nc2ccccc2)cc1OC + O=S(=O)(c1ccccc1)N(CC(F)(F)F)c1ccc(C(O)(C(F)(F)F)C(F)(F)F)cc1 [T0901317] (first compound 1 µM, partner dose 1.4 µM) | 95.8
14 | COc1ccc2c(c1)CCC1C2CCC2(C)C(NCCCCCCN3C(=O)C=CC3=O)CCC12 (centres undefined) + Oc1nc(-c2ccc(C(F)(F)F)cc2)nc2c1CSCC2 [XAV939] (first compound 0.4 µM, partner dose 2 µM) | 99.1
15 | COc1ccc2c(c1)CCC1C2CCC2(C)C(NCCCCCCN3C(=O)C=CC3=O)CCC12 (centres undefined) + O=c1cc(-c2cccc3c2Sc2ccccc2S3)oc(N2CCOCC2)c1 [KU55933] (first compound 0.4 µM, partner dose 1 µM) | 93
16 | CCN(CC)CCCCNc1ncc2cc(-c3cc(OC)cc(OC)c3)c(NC(=O)NC(C)(C)C)nc2n1 + CC(C)CCN1c2nc(Nc3cc(F)c(O)c(F)c3)ncc2N(C)C(=O)C1C [BID1870] (first compound 0.1 µM, partner dose 0.2 µM) | 94.4
17 | O=C1NC(=O)/C(=C/c2ccc(-c3ccc(F)cc3O)o2)S1 + c1cc(-c2cnn3cc(-c4ccc(OCCN5CCCCC5)cc4)cnc23)ccn1 [Dorsomorphin] (first compound 1 µM, partner dose 0.4 µM) | 91.1

Row | SMILES | cell count [%]
18 | COc1cc2ncnc(Nc3ccc(Oc4ccccc4)cc3)c2cc1OC + Oc1nc(-c2ccc(C(F)(F)F)cc2)nc2c1CSCC2 [XAV939] (first compound 2 µM, partner dose 2 µM) | 103
19 | O=C1NC(=O)/C(=C/c2ccc(-c3ccc(F)cc3O)o2)S1 + COc1cc(N2CCC(N3CCN(C)CC3)CC2)ccc1Nc1ncc(Cl)c(Nc2ccccc2S(=O)(=O)C(C)C)n1 [NVP-TAE684] (first compound 1 µM, partner dose 0.08 µM) | 90.7
20 | CCN(CC)CCCCNc1ncc2cc(-c3cc(OC)cc(OC)c3)c(NC(=O)NC(C)(C)C)nc2n1 + c1cc(-c2cnn3cc(-c4ccc(OCCN5CCCCC5)cc4)cnc23)ccn1 [Dorsomorphin] (first compound 0.1 µM, partner dose 0.4 µM) | 84
21 | O=C1NC(=O)/C(=C/c2ccc(-c3ccc(F)cc3O)o2)S1 + Oc1nc(-c2ccc(C(F)(F)F)cc2)nc2c1CSCC2 [XAV939] (first compound 1 µM, partner dose 2 µM) | 104
22 | COc1ccc2c(c1)CCC1C2CCC2(C)C(NCCCCCCN3C(=O)C=CC3=O)CCC12 (centres undefined) + CC(C)CCN1c2nc(Nc3cc(F)c(O)c(F)c3)ncc2N(C)C(=O)C1C [BID1870] (first compound 0.4 µM, partner dose 0.2 µM) | 89.2
23 | c1cc(-c2cnn3cc(-c4ccc(OCCN5CCCCC5)cc4)cnc23)ccn1 [Dorsomorphin] + Cn1cc(/C=C2\C(=O)Nc3cccnc32)c2ccccc21 [GW441756] (first compound 0.4 µM, partner dose 0.4 µM) | 80.2
24 | COc1cc(N2CCC(N3CCN(C)CC3)CC2)ccc1Nc1ncc(Cl)c(Nc2ccccc2S(=O)(=O)C(C)C)n1 + O=c1cc(-c2cccc3c2Sc2ccccc2S3)oc(N2CCOCC2)c1 [KU55933] (first compound 0.08 µM, partner dose 1 µM) | 94.7
25 | COc1ccc2c(c1)CCC1C2CCC2(C)C(NCCCCCCN3C(=O)C=CC3=O)CCC12 (centres undefined) + O=S(=O)(c1ccccc1)N(CC(F)(F)F)c1ccc(C(O)(C(F)(F)F)C(F)(F)F)cc1 [T0901317] (first compound 0.4 µM, partner dose 1.4 µM) | 89.9
26 | O=C(O)C(=O)Nc1sc2c(c1C(=O)O)CCNC2 + CC(C)CCN1c2nc(Nc3cc(F)c(O)c(F)c3)ncc2N(C)C(=O)C1C [BID1870] (first compound 1.66667 µM, partner dose 0.2 µM) | 97.5
27 | COc1ccc(COc2ccc(Cc3cnc(N)nc3N)cc2OC)cc1 + Oc1nc(-c2ccc(C(F)(F)F)cc2)nc2c1CSCC2 [XAV939] (first compound 1 µM, partner dose 2 µM) | 103
28 | Oc1cc(-c2nc(-c3ccccc3)[nH]c2-c2ccncc2)ccc1Cl + c1cc(-c2cnn3cc(-c4ccc(OCCN5CCCCC5)cc4)cnc23)ccn1 [Dorsomorphin] (first compound 0.2 µM, partner dose 0.4 µM) | 80.7
29 | COc1ccc(COc2ccc(Cc3cnc(N)nc3N)cc2OC)cc1 + COc1cc(N2CCC(N3CCN(C)CC3)CC2)ccc1Nc1ncc(Cl)c(Nc2ccccc2S(=O)(=O)C(C)C)n1 [NVP-TAE684] (first compound 1 µM, partner dose 0.08 µM) | 89.7
30 | COc1ccc(-c2ccc3c(N4CCOCC4)nc(N4C[C@@H](C)O[C@@H](C)C4)nc3n2)cc1CO + CC(C)CCN1c2nc(Nc3cc(F)c(O)c(F)c3)ncc2N(C)C(=O)C1C [BID1870] (first compound 0.02 µM, partner dose 0.2 µM) | 101
31 | O=C(O)C(=O)Nc1sc2c(c1C(=O)O)CCNC2 + CCCCCCCCCCCC1=C(O)C(=O)C=C(O)C1=O [Embelin] (first compound 1.66667 µM, partner dose 1.2 µM) | 102
32 | N#Cc1c(O)c2c(-c3ccc(-c4ccccc4O)cc3)csc2[nH]c1=O + O=C1NC(=O)/C(=C/c2ccc(-c3ccc(F)cc3O)o2)S1 [AS252424] (first compound 2 µM, partner dose 1 µM) | 110
33 | COc1ccc(COc2ccc(Cc3cnc(N)nc3N)cc2OC)cc1 + O=c1cc(-c2cccc3c2Sc2ccccc2S3)oc(N2CCOCC2)c1 [KU55933] (first compound 1 µM, partner dose 1 µM) | 93.3
34 | COC(=O)c1sccc1S(=O)(=O)Nc1ccc(Nc2ccccc2)cc1OC + Cc1cc([N+](=O)[O-])ccc1NS(=O)(=O)c1cc(Cl)ccc1Cl [FH535] (first compound 1 µM, partner dose 1 µM) | 89.3
